Assay results from US10889575B2, “4,4-diphenylpiperidine compounds or pharmaceutically acceptable salts thereof, pharmaceutical compositions and uses thereof” (Academy of Military Medical Sciences, priority 2017, dated 2021).

Assays:
Parameters in all cases: key: “—” indicates that the compound had no effect on this channel current
Conditions in all cases: 10 μM
[1] = tested on: TTX sensitive sodium channel; type: cell-based, Wistar rats
[2] = target: P/Q-type calcium channel (Homo sapiens, UniProt O00555); assay: P/Q-type calcium channel current inhibition in Xenopus oocytes
P/Q-type calcium channel, sequence (O00555 whole entry): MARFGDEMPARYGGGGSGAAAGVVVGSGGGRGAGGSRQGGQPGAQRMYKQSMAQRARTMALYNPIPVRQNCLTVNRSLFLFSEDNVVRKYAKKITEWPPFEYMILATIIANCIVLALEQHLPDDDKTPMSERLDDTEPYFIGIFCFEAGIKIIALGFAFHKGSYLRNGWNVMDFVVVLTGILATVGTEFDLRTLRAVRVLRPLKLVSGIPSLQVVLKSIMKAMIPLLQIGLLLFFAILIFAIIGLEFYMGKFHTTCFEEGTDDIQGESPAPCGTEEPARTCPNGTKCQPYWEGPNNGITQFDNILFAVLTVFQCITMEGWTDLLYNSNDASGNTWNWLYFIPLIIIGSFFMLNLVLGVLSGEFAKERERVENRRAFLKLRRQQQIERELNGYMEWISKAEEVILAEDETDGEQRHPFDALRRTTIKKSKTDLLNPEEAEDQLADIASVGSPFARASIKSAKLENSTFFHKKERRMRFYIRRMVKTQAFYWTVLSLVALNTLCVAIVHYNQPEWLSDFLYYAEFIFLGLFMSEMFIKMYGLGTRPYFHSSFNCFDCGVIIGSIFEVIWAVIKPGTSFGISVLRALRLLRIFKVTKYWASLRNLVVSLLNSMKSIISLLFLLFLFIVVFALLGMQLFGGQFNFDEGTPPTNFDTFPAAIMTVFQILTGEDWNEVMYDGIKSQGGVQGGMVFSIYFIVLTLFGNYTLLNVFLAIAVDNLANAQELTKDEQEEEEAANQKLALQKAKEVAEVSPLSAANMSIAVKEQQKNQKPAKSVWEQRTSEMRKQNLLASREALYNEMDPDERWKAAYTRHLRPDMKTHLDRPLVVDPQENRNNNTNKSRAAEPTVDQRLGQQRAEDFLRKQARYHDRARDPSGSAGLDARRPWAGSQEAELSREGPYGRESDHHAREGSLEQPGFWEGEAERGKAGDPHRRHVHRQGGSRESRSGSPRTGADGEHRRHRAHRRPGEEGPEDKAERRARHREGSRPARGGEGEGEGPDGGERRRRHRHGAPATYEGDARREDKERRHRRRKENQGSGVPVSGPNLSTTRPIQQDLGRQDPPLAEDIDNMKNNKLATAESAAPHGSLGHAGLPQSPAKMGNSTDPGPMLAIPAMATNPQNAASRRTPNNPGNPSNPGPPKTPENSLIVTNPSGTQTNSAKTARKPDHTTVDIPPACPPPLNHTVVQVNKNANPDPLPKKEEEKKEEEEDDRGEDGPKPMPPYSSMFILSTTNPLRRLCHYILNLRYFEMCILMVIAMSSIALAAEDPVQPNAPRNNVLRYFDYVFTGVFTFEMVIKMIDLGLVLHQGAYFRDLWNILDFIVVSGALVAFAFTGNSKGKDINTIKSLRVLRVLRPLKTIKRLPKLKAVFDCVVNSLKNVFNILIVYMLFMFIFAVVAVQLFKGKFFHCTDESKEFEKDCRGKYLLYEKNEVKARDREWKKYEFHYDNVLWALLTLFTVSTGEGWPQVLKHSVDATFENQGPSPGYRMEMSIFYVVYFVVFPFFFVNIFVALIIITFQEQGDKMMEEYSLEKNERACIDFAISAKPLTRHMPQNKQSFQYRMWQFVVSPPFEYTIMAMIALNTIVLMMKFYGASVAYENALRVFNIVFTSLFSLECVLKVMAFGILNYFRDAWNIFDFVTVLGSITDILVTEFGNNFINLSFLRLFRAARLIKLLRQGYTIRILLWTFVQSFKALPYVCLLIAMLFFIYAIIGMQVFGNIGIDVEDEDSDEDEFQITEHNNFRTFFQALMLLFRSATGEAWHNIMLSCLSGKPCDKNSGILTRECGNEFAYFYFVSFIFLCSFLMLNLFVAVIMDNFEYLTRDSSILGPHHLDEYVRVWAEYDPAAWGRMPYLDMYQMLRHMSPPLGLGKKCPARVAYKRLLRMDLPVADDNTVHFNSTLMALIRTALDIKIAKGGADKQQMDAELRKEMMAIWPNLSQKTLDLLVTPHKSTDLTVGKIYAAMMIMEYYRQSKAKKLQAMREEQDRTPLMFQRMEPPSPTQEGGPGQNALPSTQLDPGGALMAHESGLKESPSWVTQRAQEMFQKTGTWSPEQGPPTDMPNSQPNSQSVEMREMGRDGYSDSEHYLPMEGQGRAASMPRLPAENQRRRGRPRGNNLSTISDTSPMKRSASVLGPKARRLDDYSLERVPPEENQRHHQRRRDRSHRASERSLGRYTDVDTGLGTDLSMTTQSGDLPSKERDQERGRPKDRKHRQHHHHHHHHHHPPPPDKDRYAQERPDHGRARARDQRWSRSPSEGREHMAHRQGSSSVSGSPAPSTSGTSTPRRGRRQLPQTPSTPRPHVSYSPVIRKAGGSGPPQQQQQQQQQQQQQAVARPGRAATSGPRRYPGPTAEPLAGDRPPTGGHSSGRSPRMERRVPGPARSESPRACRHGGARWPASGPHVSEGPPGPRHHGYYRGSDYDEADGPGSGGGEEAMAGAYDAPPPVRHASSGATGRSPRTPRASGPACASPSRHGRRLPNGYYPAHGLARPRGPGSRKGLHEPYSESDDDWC
P/Q-type calcium channel, sequence (Q02641 whole entry, further chain): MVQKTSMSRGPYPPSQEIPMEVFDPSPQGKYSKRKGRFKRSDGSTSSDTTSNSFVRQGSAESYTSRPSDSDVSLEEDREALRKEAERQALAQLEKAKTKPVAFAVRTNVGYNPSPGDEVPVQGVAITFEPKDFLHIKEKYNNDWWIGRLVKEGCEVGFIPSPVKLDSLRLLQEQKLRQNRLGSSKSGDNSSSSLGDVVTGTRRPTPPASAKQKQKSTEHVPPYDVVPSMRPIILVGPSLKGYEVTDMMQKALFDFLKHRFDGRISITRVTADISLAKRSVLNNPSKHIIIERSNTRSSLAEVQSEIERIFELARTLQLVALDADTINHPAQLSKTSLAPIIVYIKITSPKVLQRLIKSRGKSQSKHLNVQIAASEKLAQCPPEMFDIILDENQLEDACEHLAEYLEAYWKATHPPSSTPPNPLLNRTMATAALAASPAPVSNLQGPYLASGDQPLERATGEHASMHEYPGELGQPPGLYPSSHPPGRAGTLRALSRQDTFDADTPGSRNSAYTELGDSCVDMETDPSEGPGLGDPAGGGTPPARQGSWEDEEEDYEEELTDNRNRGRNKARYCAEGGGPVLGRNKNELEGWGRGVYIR
P/Q-type calcium channel, sequence (P54290 945-1091, further chain): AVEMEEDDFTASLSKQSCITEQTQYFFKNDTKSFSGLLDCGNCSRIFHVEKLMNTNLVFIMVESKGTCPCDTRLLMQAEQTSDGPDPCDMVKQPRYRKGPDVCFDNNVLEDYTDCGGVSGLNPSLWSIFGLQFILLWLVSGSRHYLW
P/Q-type calcium channel, sequence (P54290 25-944, further chain): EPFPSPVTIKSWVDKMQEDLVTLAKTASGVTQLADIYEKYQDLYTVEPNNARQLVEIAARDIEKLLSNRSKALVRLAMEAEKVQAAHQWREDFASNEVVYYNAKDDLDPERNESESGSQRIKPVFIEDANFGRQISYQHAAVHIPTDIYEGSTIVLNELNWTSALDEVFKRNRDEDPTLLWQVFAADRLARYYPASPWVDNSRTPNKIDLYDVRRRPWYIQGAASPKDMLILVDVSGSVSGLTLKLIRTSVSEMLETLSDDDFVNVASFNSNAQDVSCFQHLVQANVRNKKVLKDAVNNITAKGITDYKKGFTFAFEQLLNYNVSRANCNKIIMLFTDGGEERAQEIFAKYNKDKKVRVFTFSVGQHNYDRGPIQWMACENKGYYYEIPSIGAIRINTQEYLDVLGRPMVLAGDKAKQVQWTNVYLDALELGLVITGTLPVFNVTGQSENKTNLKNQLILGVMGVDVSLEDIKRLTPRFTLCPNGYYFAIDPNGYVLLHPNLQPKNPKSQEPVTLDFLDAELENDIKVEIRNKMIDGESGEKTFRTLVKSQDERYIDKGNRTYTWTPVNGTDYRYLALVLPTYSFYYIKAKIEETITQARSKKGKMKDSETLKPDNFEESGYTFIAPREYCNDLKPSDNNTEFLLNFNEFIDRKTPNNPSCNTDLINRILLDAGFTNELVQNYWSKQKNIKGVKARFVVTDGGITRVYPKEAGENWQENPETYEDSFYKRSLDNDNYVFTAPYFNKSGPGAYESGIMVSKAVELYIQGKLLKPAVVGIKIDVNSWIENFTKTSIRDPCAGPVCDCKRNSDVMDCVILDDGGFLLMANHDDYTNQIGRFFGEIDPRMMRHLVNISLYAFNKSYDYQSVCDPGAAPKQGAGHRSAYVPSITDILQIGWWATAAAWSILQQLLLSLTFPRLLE

[3] = tested on: Voltage-gated potassium channel; assay: voltage-gated potassium channel current, primary cultured hippocampal neurons, patch clamp; type: cell-based, Wistar rats

SMILES | Current inhibition, TTX sensitive sodium channel [1] | Current inhibition, P/Q-type calcium channel [2] | Current inhibition, Voltage-gated potassium channel [3]
O=C(CCN1CCC(c2ccccc2)(c2ccccc2)CC1)c1ccc2[nH]c(=O)oc2c1 [Compound (1), 6-(3-(4,4-diphenylpiperidinyl)-propionyl)benzoxazolin-2-one] | — | — | —
O=C(CN1CCC(c2ccccc2)(c2ccccc2)CC1)c1ccc2[nH]c(=O)oc2c1 [Compound (2), 6-(3-(4,4-diphenylpiperidinyl)-acetyl)benzoxazolin-2-one] | — |  | —
CN(C)c1ccc(CN2CCC(c3ccccc3)(c3ccccc3)CC2)cc1 [Compound (3), 1-(4-dimethylaminobenzyl)-4,4-diphenylpiperidine] | — | — | —
COc1cc(CN2CCC(c3ccccc3)(c3ccccc3)CC2)cc(OC)c1OC.Cl [Compound (4) hydrochloride, 1-(3,4,5-trimethoxybenzyl)-4,4-diphenylpiperidine hydrochloride] | — | — | —
c1ccc(C2(c3ccccc3)CCN(Cc3cccs3)CC2)cc1 [Compound (5), 1-(2-methylthienyl)-4,4-diphenylpiperidine] | — |  | —
